Assay results taken from the antibiotic and cytotoxicity screens of Wong et al. (2023).
This is one part of the list.

Columns and labels:
HSkMC = human skeletal muscle cells; assay: cytotoxicity call (relative viability < 0.9); conditions: 10 µM
HepG2 = assay: cytotoxicity call (relative viability < 0.9); conditions: 10 µM
S. aureus RN4220 = assay: growth inhibition call (relative growth <= 0.2); conditions: 50 µM

C[C@H](CO)N1C[C@H](C)[C@@H](CN(C)CC2CCCCC2)Oc2c(NC(=O)Nc3cccc4ccccc34)cccc2C1=O
cytotoxicity call (HSkMC): inactive
cytotoxicity call (HepG2): inactive
growth inhibition call (S. aureus RN4220): inactive

COc1ccc(S(=O)(=O)N(C)C[C@@H]2Oc3ccc(NS(C)(=O)=O)cc3C(=O)N([C@@H](C)CO)C[C@H]2C)cc1
cytotoxicity call (HSkMC): inactive
cytotoxicity call (HepG2): inactive
growth inhibition call (S. aureus RN4220): inactive

C[C@H]1CN([C@@H](C)CO)C(=O)Cc2cc(NC(=O)C3CCCCC3)ccc2O[C@H]1CN(C)C(=O)Nc1ccc(C(F)(F)F)cc1
cytotoxicity call (HSkMC): inactive
cytotoxicity call (HepG2): inactive
growth inhibition call (S. aureus RN4220): inactive

C=C1[C@@H]2[C@H]3OC(=O)[C@@H](C)[C@@H]3[C@@H](O[C@@H]3O[C@H](CO)[C@@H](O)[C@H](O)[C@H]3O)CC(=C)[C@@H]2C[C@@H]1O
cytotoxicity call (HSkMC): inactive
cytotoxicity call (HepG2): inactive
growth inhibition call (S. aureus RN4220): inactive

Cc1ccc(S(=O)(=O)Nc2ccc3c(c2)C(=O)N([C@@H](C)CO)C[C@@H](C)[C@H](CN(C)C(=O)Cc2ccccc2)OCCCC[C@@H](C)O3)cc1
cytotoxicity call (HSkMC): inactive
cytotoxicity call (HepG2): inactive
growth inhibition call (S. aureus RN4220): inactive

COCC(=O)N1CC[C@]2(CC1)CN([C@H](CO)c1c2c2ccc(cc2n1C)OC)C(=O)Nc1ccccc1F
cytotoxicity call (HSkMC): inactive
cytotoxicity call (HepG2): inactive
growth inhibition call (S. aureus RN4220): inactive

CC(C)NCCCn1c(Sc2cc3c(cc2I)OCO3)nc2c(N)ncnc21
cytotoxicity call (HSkMC): inactive
cytotoxicity call (HepG2): active
growth inhibition call (S. aureus RN4220): inactive

CC1(C)SC2C(N3C(=O)C(c4ccccc4)NC3(C)C)C(=O)N2C1C(=O)[O-].[K+] (stereo not given)
cytotoxicity call (HSkMC): inactive
cytotoxicity call (HepG2): inactive
growth inhibition call (S. aureus RN4220): active

COc1cc(C(=O)NCc2ccc(OCCN(C)C)cc2)cc(OC)c1OC.Cl
cytotoxicity call (HSkMC): inactive
cytotoxicity call (HepG2): inactive
growth inhibition call (S. aureus RN4220): inactive

Cc1noc(C)c1NC(=O)N[C@H]1CC[C@H](CC(=O)N2CCN(C)CC2)O[C@H]1CO
cytotoxicity call (HSkMC): inactive
cytotoxicity call (HepG2): inactive
growth inhibition call (S. aureus RN4220): inactive

C[C@@H]1CN([C@H](C)CO)C(=O)c2cc(NS(=O)(=O)c3ccccc3)ccc2O[C@@H]1CN(C)S(=O)(=O)c1cn(C)cn1
cytotoxicity call (HSkMC): inactive
cytotoxicity call (HepG2): inactive
growth inhibition call (S. aureus RN4220): inactive

COc1ccc(NC(=O)Nc2ccc3c(c2)C(=O)N([C@@H](C)CO)C[C@@H](C)[C@H](CN(C)CC2CCCCC2)OCCCC[C@@H](C)O3)cc1
cytotoxicity call (HSkMC): inactive
cytotoxicity call (HepG2): inactive
growth inhibition call (S. aureus RN4220): inactive

CCC1(c2ccccc2)C(=O)NCNC1=O
cytotoxicity call (HSkMC): inactive
cytotoxicity call (HepG2): inactive
growth inhibition call (S. aureus RN4220): inactive

Cc1noc(C)c1S(=O)(=O)Nc1cccc2c1O[C@H](CN(C)Cc1ccncc1)[C@H](C)CN([C@H](C)CO)C2=O
cytotoxicity call (HSkMC): inactive
cytotoxicity call (HepG2): inactive
growth inhibition call (S. aureus RN4220): inactive

CC(C)(C)[S@](=O)N1Cc2cc(C(=O)N3CCCCC3)nc(-c3cccc(-c4cccc(C#N)c4)c3)c2[C@@H]1CCO
cytotoxicity call (HSkMC): inactive
cytotoxicity call (HepG2): inactive
growth inhibition call (S. aureus RN4220): inactive

CCCNC(=O)c1cc2c(c(-c3cccc(-c4cccc(OC)c4)c3)n1)[C@H](CCO)N([S@@](=O)C(C)(C)C)C2
cytotoxicity call (HSkMC): inactive
cytotoxicity call (HepG2): inactive
growth inhibition call (S. aureus RN4220): inactive

CO[C@@]1(C2=NCCN2)COc2ccccc2O1
cytotoxicity call (HSkMC): inactive
cytotoxicity call (HepG2): inactive
growth inhibition call (S. aureus RN4220): inactive

C[C@@H]1CN([C@@H](C)CO)S(=O)(=O)c2ccc(C3=CCCC3)cc2O[C@@H]1CN(C)S(=O)(=O)c1cn(C)cn1
cytotoxicity call (HSkMC): inactive
cytotoxicity call (HepG2): inactive
growth inhibition call (S. aureus RN4220): inactive

C[C@H]1CN([C@@H](C)CO)C(=O)c2cccc(NS(C)(=O)=O)c2O[C@@H]1CN(C)C(=O)Nc1ccccc1
cytotoxicity call (HSkMC): inactive
cytotoxicity call (HepG2): inactive
growth inhibition call (S. aureus RN4220): inactive

C[C@@H]1CCCCO[C@H](CN(C)S(=O)(=O)c2ccc(Cl)cc2)[C@@H](C)CN([C@@H](C)CO)C(=O)c2cc(NC(=O)c3ccccc3)ccc2O1
cytotoxicity call (HSkMC): inactive
cytotoxicity call (HepG2): inactive
growth inhibition call (S. aureus RN4220): inactive

C[C@H]1CN([C@@H](C)CO)C(=O)c2cccc(NS(=O)(=O)c3ccc(F)cc3)c2O[C@@H]1CN(C)S(=O)(=O)c1ccccc1
cytotoxicity call (HSkMC): inactive
cytotoxicity call (HepG2): inactive
growth inhibition call (S. aureus RN4220): inactive

C[C@H]1CN([C@@H](C)CO)C(=O)c2cccc(NS(=O)(=O)c3ccc(F)cc3)c2O[C@H]1CN(C)S(=O)(=O)c1cccs1
cytotoxicity call (HSkMC): inactive
cytotoxicity call (HepG2): inactive
growth inhibition call (S. aureus RN4220): inactive

N[C@@H]1CC[C@@H](CCn2cc(C3CCCCC3)nn2)O[C@H]1CO
cytotoxicity call (HSkMC): inactive
cytotoxicity call (HepG2): inactive
growth inhibition call (S. aureus RN4220): inactive

Cn1c(=O)c2[nH]c(-[n+]3ccc(C(=O)O)cc3)nc2n(C)c1=O
cytotoxicity call (HSkMC): inactive
cytotoxicity call (HepG2): active
growth inhibition call (S. aureus RN4220): inactive

COc1ccc(S(=O)(=O)N(C)C[C@H]2OCCCC[C@H](C)Oc3ccc(NS(=O)(=O)c4cn(C)cn4)cc3C(=O)N([C@@H](C)CO)C[C@H]2C)cc1
cytotoxicity call (HSkMC): active
cytotoxicity call (HepG2): inactive
growth inhibition call (S. aureus RN4220): inactive

Cc1noc(C)c1NC(=O)Nc1ccc2c(c1)C(=O)N([C@H](C)CO)C[C@@H](C)[C@H](CN(C)Cc1ccncc1)OCCCC[C@H](C)O2
cytotoxicity call (HSkMC): inactive
cytotoxicity call (HepG2): inactive
growth inhibition call (S. aureus RN4220): inactive

C[C@@H]1CN([C@H](C)CO)C(=O)c2cc(NC(=O)C3CCCCC3)ccc2O[C@H]1CN(C)Cc1ccc(C(F)(F)F)cc1
cytotoxicity call (HSkMC): inactive
cytotoxicity call (HepG2): inactive
growth inhibition call (S. aureus RN4220): inactive

COCC#Cc1ccc2c(c1)O[C@H](CN(C)C(=O)c1ccccc1F)[C@H](C)CN([C@@H](C)CO)S2(=O)=O
cytotoxicity call (HSkMC): inactive
cytotoxicity call (HepG2): inactive
growth inhibition call (S. aureus RN4220): inactive

O=C(C[C@@H]1C=C[C@H](NC(=O)c2ccc(F)cc2)[C@@H](CO)O1)NCc1ccncn1
cytotoxicity call (HSkMC): inactive
cytotoxicity call (HepG2): inactive
growth inhibition call (S. aureus RN4220): inactive

C[C@@H]1CN([C@@H](C)CO)C(=O)Cc2cc(NC(=O)Nc3ccccc3)ccc2O[C@@H]1CN(C)Cc1ccc(C(F)(F)F)cc1
cytotoxicity call (HSkMC): active
cytotoxicity call (HepG2): active
growth inhibition call (S. aureus RN4220): inactive

C[C@@H]1CN([C@@H](C)CO)C(=O)c2cc(NS(=O)(=O)c3cn(C)cn3)ccc2O[C@@H]1CN(C)S(=O)(=O)c1cccs1
cytotoxicity call (HSkMC): inactive
cytotoxicity call (HepG2): inactive
growth inhibition call (S. aureus RN4220): inactive

C[C@H]1CN([C@@H](C)CO)S(=O)(=O)c2ccc(C#CC3CC3)cc2O[C@@H]1CN(C)Cc1cccc(F)c1
cytotoxicity call (HSkMC): inactive
cytotoxicity call (HepG2): inactive
growth inhibition call (S. aureus RN4220): inactive

CC(C)C#Cc1ccc2c(c1)O[C@H](CN(C)S(=O)(=O)c1cn(C)cn1)[C@@H](C)CN([C@@H](C)CO)S2(=O)=O
cytotoxicity call (HSkMC): inactive
cytotoxicity call (HepG2): inactive
growth inhibition call (S. aureus RN4220): inactive

C[C@H]1CN([C@@H](C)CO)S(=O)(=O)c2ccc(Br)cc2O[C@@H]1CN(C)S(=O)(=O)c1ccccc1F
cytotoxicity call (HSkMC): inactive
cytotoxicity call (HepG2): inactive
growth inhibition call (S. aureus RN4220): inactive

COc1ccc(S(=O)(=O)Nc2ccc3c(c2)CC(=O)N([C@@H](C)CO)C[C@H](C)[C@H](CN(C)C(=O)NC(C)C)O3)cc1
cytotoxicity call (HSkMC): inactive
cytotoxicity call (HepG2): inactive
growth inhibition call (S. aureus RN4220): inactive

Cc1noc(C)c1S(=O)(=O)Nc1ccc2c(c1)CC(=O)N([C@@H](C)CO)C[C@@H](C)[C@H](CN(C)S(=O)(=O)c1ccc(Cl)cc1)O2
cytotoxicity call (HSkMC): inactive
cytotoxicity call (HepG2): active
growth inhibition call (S. aureus RN4220): inactive

C[C@@H]1CCCCO[C@@H](CN(C)Cc2ccccc2)[C@@H](C)CN([C@H](C)CO)C(=O)c2cc(NS(=O)(=O)c3ccccc3)ccc2O1
cytotoxicity call (HSkMC): inactive
cytotoxicity call (HepG2): inactive
growth inhibition call (S. aureus RN4220): inactive

C[C@@H]1CN([C@H](C)CO)C(=O)Cc2cc(NC(=O)C3CCCCC3)ccc2O[C@H]1CN(C)Cc1ccc(-c2ccccc2)cc1
cytotoxicity call (HSkMC): inactive
cytotoxicity call (HepG2): inactive
growth inhibition call (S. aureus RN4220): inactive

C[C@H](CO)N1C[C@H](C)[C@H](CN(C)C(=O)Nc2ccccc2)Oc2c(NC(=O)c3cnccn3)cccc2C1=O
cytotoxicity call (HSkMC): inactive
cytotoxicity call (HepG2): inactive
growth inhibition call (S. aureus RN4220): inactive

C[C@H](CO)N1C[C@H](C)[C@H](CN(C)Cc2ccccc2)Oc2c(NC(=O)Nc3cccc4ccccc34)cccc2C1=O
cytotoxicity call (HSkMC): inactive
cytotoxicity call (HepG2): inactive
growth inhibition call (S. aureus RN4220): inactive

C[C@H]1CN([C@@H](C)CO)C(=O)Cc2cc(NS(=O)(=O)c3ccc(Cl)cc3)ccc2O[C@H]1CN(C)Cc1ccc(Oc2ccccc2)cc1
cytotoxicity call (HSkMC): active
cytotoxicity call (HepG2): active
growth inhibition call (S. aureus RN4220): inactive

O=C1O[C@H](c2ccccc2)[C@H](c2ccccc2)N2[C@H]1[C@@H](C(=O)N1CCCCCCC1)[C@]1(C(=O)Nc3ccc(C#CC4=CCCCC4)cc31)[C@H]2c1ccccc1OCCO
cytotoxicity call (HSkMC): inactive
cytotoxicity call (HepG2): inactive
growth inhibition call (S. aureus RN4220): inactive

COc1cccc(C#Cc2cnc3c(c2)C(=O)N([C@@H](C)CO)C[C@H](C)[C@H](CN(C)C(=O)C2CCC2)O3)c1
cytotoxicity call (HSkMC): inactive
cytotoxicity call (HepG2): inactive
growth inhibition call (S. aureus RN4220): inactive

CNC[C@@H]1Oc2c(NS(=O)(=O)c3cn(C)cn3)cccc2C(=O)N([C@H](C)CO)C[C@H]1C
cytotoxicity call (HSkMC): inactive
cytotoxicity call (HepG2): inactive
growth inhibition call (S. aureus RN4220): inactive

Cc1cc(C(=O)Nc2cccc3c2O[C@@H](CN(C)C(=O)Nc2ccccc2)[C@H](C)CN([C@H](C)CO)C3=O)n(C)n1
cytotoxicity call (HSkMC): inactive
cytotoxicity call (HepG2): inactive
growth inhibition call (S. aureus RN4220): inactive

CC(C)NC(=O)N(C)C[C@@H]1Oc2ccc(NS(=O)(=O)c3ccccc3)cc2CC(=O)N([C@@H](C)CO)C[C@@H]1C
cytotoxicity call (HSkMC): inactive
cytotoxicity call (HepG2): inactive
growth inhibition call (S. aureus RN4220): inactive

[O-][NH2+]N1CCCCC1
cytotoxicity call (HSkMC): inactive
cytotoxicity call (HepG2): inactive
growth inhibition call (S. aureus RN4220): inactive

CCS(=O)(=O)N(C)C[C@@H]1OCc2ccccc2-c2c(n(C)c3ccccc23)C(=O)N([C@@H](C)CO)C[C@@H]1C
cytotoxicity call (HSkMC): inactive
cytotoxicity call (HepG2): inactive
growth inhibition call (S. aureus RN4220): inactive

CC(C)NC(=O)Nc1ccc2c(c1)C(=O)N([C@H](C)CO)C[C@H](C)[C@@H](CN(C)Cc1ccc(C(=O)O)cc1)O2
cytotoxicity call (HSkMC): inactive
cytotoxicity call (HepG2): inactive
growth inhibition call (S. aureus RN4220): inactive

C[C@@H]1CCCCO[C@@H](CN(C)C(=O)Nc2ccc3c(c2)OCO3)[C@@H](C)CN([C@H](C)CO)C(=O)c2cc(NC(=O)Nc3ccc4c(c3)OCO4)ccc2O1
cytotoxicity call (HSkMC): inactive
cytotoxicity call (HepG2): inactive
growth inhibition call (S. aureus RN4220): inactive

Cc1cc(C(=O)Nc2cccc3c2O[C@H](CN(C)C(=O)NC2CCCCC2)[C@@H](C)CN([C@H](C)CO)C3=O)n(C)n1
cytotoxicity call (HSkMC): inactive
cytotoxicity call (HepG2): inactive
growth inhibition call (S. aureus RN4220): inactive

Cc1ccc(S(=O)(=O)Nc2ccc3c(c2)C(=O)N([C@H](C)CO)C[C@H](C)[C@@H](CN(C)S(=O)(=O)c2ccc(F)cc2)O3)cc1
cytotoxicity call (HSkMC): inactive
cytotoxicity call (HepG2): inactive
growth inhibition call (S. aureus RN4220): inactive

C[C@@H]1CN([C@@H](C)CO)C(=O)c2cc(NC(=O)Cn3cnnn3)ccc2O[C@@H]1CN(C)Cc1ccc(Cl)c(Cl)c1
cytotoxicity call (HSkMC): inactive
cytotoxicity call (HepG2): inactive
growth inhibition call (S. aureus RN4220): inactive

Cc1noc(C)c1NC(=O)N(C)C[C@H]1Oc2ccc(NC(=O)Cn3cnnn3)cc2CC(=O)N([C@H](C)CO)C[C@@H]1C
cytotoxicity call (HSkMC): inactive
cytotoxicity call (HepG2): inactive
growth inhibition call (S. aureus RN4220): inactive

Cc1noc(C)c1NC(=O)N(C)C[C@H]1Oc2ccc(NC(=O)Nc3ccc(C(F)(F)F)cc3)cc2C(=O)N([C@H](C)CO)C[C@@H]1C
cytotoxicity call (HSkMC): inactive
cytotoxicity call (HepG2): inactive
growth inhibition call (S. aureus RN4220): inactive
